# Laboratory results taken from PubChem BioAssay AID743262 (National Center for Advancing Translational Sciences (NCATS), 2014).
# Out of some 1,300 compounds screened, about 25 (2%) were called active. Roughly 9% stayed inconclusive and do not appear here. Calls come from the whole dose curve; as a rule, active = well fitted activation curve with a large enough effect; inconclusive = small, poorly fitted or top-dose-only effect; inactive = flat fitted curve, though single readings scatter. This is one part of the list.
# Target: Glucagon-like peptide 1 receptor (Homo sapiens) (UniProt P43220)
# Chain of UniProt P43220 (P43220 whole entry, looked up): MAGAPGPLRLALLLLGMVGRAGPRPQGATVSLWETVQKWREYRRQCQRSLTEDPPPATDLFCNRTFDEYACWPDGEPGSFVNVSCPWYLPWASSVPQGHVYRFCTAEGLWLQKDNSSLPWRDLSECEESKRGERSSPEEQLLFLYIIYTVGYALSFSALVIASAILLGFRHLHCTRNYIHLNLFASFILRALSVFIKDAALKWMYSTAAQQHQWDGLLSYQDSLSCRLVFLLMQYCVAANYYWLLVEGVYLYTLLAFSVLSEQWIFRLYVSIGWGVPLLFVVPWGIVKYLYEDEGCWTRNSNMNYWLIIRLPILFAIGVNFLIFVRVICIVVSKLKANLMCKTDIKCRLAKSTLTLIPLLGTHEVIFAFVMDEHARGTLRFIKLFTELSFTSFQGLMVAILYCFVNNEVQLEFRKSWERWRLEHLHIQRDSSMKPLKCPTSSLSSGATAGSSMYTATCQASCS
# Assay: qHTS of GLP-1 Receptor Agonists: Hit Validation; note: % of control where 0% means no effect
# Conditions: HEK293 GLP-1R, cAMP-response luciferase, 4-6 h; series mostly up to 46.1 µM; activation: at the top concentration
# Method in brief: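 Luminescence from a cAMP-responsive luciferase reporter was read 12 min after detection reagent at RT. Before that, HEK293 cells stably expressing GLP-1R plus reporter, seeded 12 h earlier, were exposed to compound for 4-6 hr at 37 deg C.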
row,Compound,activation
1,c1ccc2c(c1)ccc1nnc(-c3ccc4c(c3)OCO4)n12,inactive: 4.04%
2,COc1ccc(NC(=O)C2(C)CCN2Cc2ccc(OC)c3ccccc23)cc1OC (stereo unspecified),inactive: 17.8%
3,C[N+](C)(C)CC=O,inactive: -0.968%
4,O=C(COc1ccc(Cl)cc1Cl)NCCCCc1ccccc1,inactive: 3.11%
5,O=C(Nc1cccc(S(=O)(=O)NC2=NCCC2)c1)c1ccc(F)cc1F,inactive: -1.65%
6,C=CCn1c2ccccc2c(=O)c2cc(C#CC3(O)CCCCC3)ccc21,inactive: 19.5%
7,CSCCC(NS(=O)(=O)/C=C/c1ccccc1)C(=O)NCCc1ccc(S(N)(=O)=O)cc1 (stereo unspecified),inactive: -1.13%
8,CCNC(=S)/N=C(/Nc1ccccc1)Nc1nc(C)cc(C)n1,inactive: 8.06%
9,Cc1ccc(C)c(N2N=C(C(=O)NCCN3C(=O)S/C(=C\c4cccnc4)C3=O)CCC2=O)c1,inactive: -0.677%
10,N#Cc1sc2nc(C3CC3)cc(-c3ccccc3)c2c1N,inactive: 20.2%
11,CC(C)OC(=O)c1cc2c(OCC(O)CNC(C)(C)C)cccc2[nH]1 (stereo unspecified),inactive: 4.39%
12,CC(C)COC(=O)c1cc(=O)[nH]c2ccccc12,inactive: 0.571%
13,CCCOc1ccc(N2C(=O)CC(N3CCN(CCN=CC4C(=O)CC(C)(C)CC4=O)CC3)C2=O)cc1 (stereo unspecified),inactive: -0.746%
14,CC(C)(C)C(=O)c1cnc(Nc2ccccc2)s1,inactive: 3.5%
15,COc1ccc(C(C)=O)cc1COC(=O)c1ccc(N)c([N+](=O)[O-])c1,inactive: 17%
16,N#C/C(=C\c1ccc(N2CCOCC2)o1)C(=O)NC1CCCCC1,inactive: 4.42%
17,C=CCN=c1scc(-c2ccc(F)cc2)n1/N=C/c1ccccn1,inactive: 29.6%
18,CCOC(=O)c1c(NC(=O)COC(=O)Cc2n[nH]c(=O)c3ccccc23)sc(C(=O)N(C)C)c1C,inactive: 4.92%
19,Cc1ccc(CNc2cc(-c3nn4c(C)nnc4s3)ccc2C)s1,inactive: 16.4%
20,CC(=O)Nc1cc(-c2ccccc2F)cn2c(-c3ccccc3)cnc12,inactive: 3.65%
21,Oc1ccc(N=Cc2ccc(-c3cccs3)s2)cc1,inactive: 2.69%
22,COc1ccc(C(=O)c2sc(Nc3ccccc3F)nc2N)cc1,inactive: 13.6%
23,CC(C)CCOc1ccc(C2=NNC(=O)CC2)cc1,inactive: 3.1%

row,Compound,activation
1,CCOc1cc(/C=N/NC(=O)CSc2cccc3cccnc23)ccc1O,inactive: 7.22%
2,C#CC(CC)(CC)NC(=S)Nc1ccc(S(N)(=O)=O)cc1,inactive: 0.266%
3,CCOc1ccc(C(C)=O)cc1Cn1nc(C(=O)O)c2ccccc2c1=O,inactive: 21.1%
4,CC(C)(C)n1cnc2cc(NCc3ccc(Br)cc3)ccc21,inactive: 4.16%
5,COc1cc2c(cc1OC)CN(C(=O)CCCN1C(=O)c3ccccc3C1=O)CC2,inactive: 4.68%
6,CCOC(=O)c1oc2ccccc2c1COC(=O)CNC(=O)c1ccccc1OC,inactive: 3.94%
7,COc1ccc(Nc2ncnc3onc(C)c23)cc1Cl,inactive: 0.196%
8,CCOC(=O)C1=C(CSc2nc(-c3ccncc3)ccc2C#N)OC(N)=C(C#N)C1c1cccnc1 (stereo unspecified),inactive: 0.471%
9,CC(C(=O)O)c1ccc(-c2ccccc2)c(F)c1 (stereo unspecified),inactive: 0.217%
10,CCOC(=O)c1cc(-c2cccc(C(F)(F)F)c2)nc2nc(SC)[nH]c(=O)c12,inactive: -0.146%
11,COc1ccc(/C=N/NC(=O)CCSc2nc3ccccc3s2)cc1OC,inactive: 23.3%
12,CC(C)(C)C(=O)N1CCN(c2ccc([N+](=O)[O-])c(NCC3CCCO3)c2)CC1 (stereo unspecified),inactive: 3.8%
13,c1ccc(Nc2c3c(nc4ncnn24)CCC3)cc1,inactive: 4.21%
14,N#Cc1cccn1-c1nccc(-c2cccs2)n1,inactive: 6.66%
15,CCOc1ccc(CN2CCC(n3nccc3NC(=O)c3ccccc3OC)CC2)cc1,inactive: -0.286%
16,CCCCCCCCC(=O)N/N=C/c1ccccn1,inactive: -0.825%
17,CCCCN(CC)C(=O)c1cc2cc3ccc(OC)cc3nc2o1,inactive: 9.49%
18,C/C(=N/NC(=O)CCc1ccccc1)c1ccc2c(c1)OCO2,inactive: 3.43%
19,CCOC(=O)N1CCN(C(c2cccnc2)c2ccc3cccnc3c2O)CC1 (stereo unspecified),inactive: 22.8%
20,CCCc1cc(-c2ccc(O)c(OCC)c2)c(C#N)c(N)n1,inactive: 10.5%
21,CC1CN(c2nc(N(C)c3ccccc3)nc(N)c2[N+](=O)[O-])CC(C)O1 (stereo unspecified),inactive: 4.07%
22,CCOc1ccc(CN(C)C(=O)c2cc3ccccc3o2)cc1OC,inactive: 2.47%
23,COc1cc(OC)c(C(=O)OC(C)C(=O)Nc2cccc(C(F)(F)F)c2)cc1OC (stereo unspecified),inactive: 1.4%

row,Compound,activation
1,COc1cccc(C=NNC(=O)c2ccncc2)c1O,inactive: -0.927%
2,C/C(=N\Nc1nc2ccccc2[nH]1)c1ccc(C)o1,inactive: -0.323%
3,Cc1c(C)n(Cc2ccccc2)c2ncnc(NCCO)c12,inactive: -0.311%
4,N#Cc1c(-c2ccc(F)cc2)noc1N,inactive: -0.686%
5,COc1ccc(N(CC(=O)N/N=C/c2ccc(OC)c(OC)c2)S(=O)(=O)c2ccccc2)cc1,inactive: 22.5%
6,Cc1cc(NC(=O)CCC(=O)N(Cc2cccnc2)C(C(=O)NC(C)(C)C)c2ccccc2Cl)no1 (stereo unspecified),inactive: 0.481%
7,C/C(=N\NC(=O)COc1cccc(Cl)c1)c1ccc2c(c1)OCCO2,inactive: -0.489%
8,O=C(O)c1ccc(N/N=C/c2ccc(-c3ccccc3Cl)o2)cc1,inactive: -0.0929%
9,Cc1c(C(=O)NCc2cccs2)oc2ccc(Br)cc12,inactive: 4.96%
10,COc1ccc(CC(=O)O/N=C(\N)c2ccc(Br)cc2)cc1OC,inactive: 0.604%
11,Cc1noc(C)c1CSc1nc2ccccc2c(=O)n1-c1ccccc1,inactive: 19.4%
12,CCC1(c2ccccc2)NC(=O)N(CC(=O)NCc2ccc(OC)cc2)C1=O (stereo unspecified),inactive: -0.954%
13,COc1ccc(/C=C2/C(=O)OCc3cc(OC)c(OC)cc32)c(OC)c1,inactive: 16.4%
14,CC1(C(=O)NCc2cccs2)Cc2c(-c3ccc4c(c3)OCO4)ccnc2O1 (stereo unspecified),inactive: 10.9%
15,ClCCn1cnc2c(SCc3ccccc3)ncnc21,inactive: 10.5%
16,COc1ccc(-c2cc(=O)c3cc(O)ccc3o2)cc1,inactive: 2.45%
17,CSc1nnc(C)c(/C=C/Nc2ccc(C)cc2)n1,inactive: 9.58%
18,O=C(N/N=C/C(Br)=C/c1ccccc1)c1cccs1,inactive: 6.76%
19,CN1CCN(c2ccccc2NC(=O)c2ccc(-c3ccc(Cl)cc3Cl)o2)CC1,inactive: 27.1%
20,Cc1noc(C)c1COc1ccccc1C(=O)Nc1cccc(S(=O)(=O)N(C)C)c1,inactive: 1.43%
21,COc1ccc(OC)c(N/C=C/C(=O)c2ccc(OC)c(OC)c2)c1,inactive: 13.3%
22,CCOC(=O)/C(C#N)=C/Nc1cc(OC)ccc1OC,inactive: 2.12%
23,CCOC(=O)Cn1cnc2scc(-c3ccccc3)c2c1=O,inactive: -0.767%

row,Compound,activation
1,COc1cc(/C=N/NC(=O)CCn2cnc(-c3ccccc3)c2-c2ccccc2)ccc1O,inactive: 11.2%
2,O=C1C(Cl)=C(NCC2CCCO2)C(=O)N1CCc1ccccc1 (stereo unspecified),inactive: -0.426%
3,Cc1ccccc1-n1c(SCc2c(C)noc2C)nnc1-c1ccncc1,inactive: -0.312%
4,COc1ccc(C2=CC(=O)CC(c3ccccc3)C2)cc1 (stereo unspecified),inactive: 1.77%
5,C=CCc1c(C)nc(-c2ccccc2)nc1Nc1ccccc1O,inactive: 12.3%
6,COc1ccc(-c2ccc(SCC(=O)NC3CCCC3)nn2)cc1OC,inactive: 8.02%
7,Cc1ccsc1C(=O)Nc1cc(C(C)(C)C)nn1-c1ccccc1,inactive: -0.436%
8,C=CCn1c(SCC(=O)c2ccc(CNC(C)=O)o2)nc2scc(C3CC3)c2c1=O,inactive: 17.3%
9,N#CCCNS(=O)(=O)c1ccc(C(=O)OCC2CCCCC2)cc1,inactive: 4.23%
10,CC(C)(C)c1ccc(C(=O)O/N=C(\N)Cc2cccs2)cc1,inactive: 29.7%
11,Cc1nc(C)c(-c2csc(Nc3cccc(O)c3)n2)s1,inactive: 8.17%
12,O=c1[nH]n(CC2COC3(CCCCC3)O2)c(=O)c2ccccc12 (stereo unspecified),inactive: 5.01%
13,CCCSc1nc2c(c(=O)[nH]c(=O)n2C)n1CCc1ccccc1,inactive: 2.47%
14,CCOC(=O)C1CCN(C2=NC(=O)/C(=C/c3ccc(OC)c(OC)c3)S2)CC1,inactive: 17.3%
15,CC(C)(C)Nc1nc(-c2ccc3c(c2)CCN3C(=O)C2CC2)cs1,inactive: 8.67%
16,COc1ccc(/C(=C\Nc2ccc(C)c(C)c2)C(C)=O)cc1OC,inactive: 2.94%
17,COc1ccccc1CC(=O)O/N=C(\N)Cc1cccc2ccccc12,inactive: 28.6%
18,NS(=O)(=O)c1ccc(CCNc2nc(C(F)(F)F)nc3ccccc23)cc1,inactive: 10.5%
19,COc1ccc(-c2csc(C(C)(O)c3ccccc3)n2)cc1OC (stereo unspecified),inactive: 9.05%
20,Cc1cc(C)c(C#N)c(SCc2nnc(-c3ccccc3[N+](=O)[O-])o2)n1,inactive: 15.7%
21,CCOC(=O)c1c(CC(C)C)csc1NC=O,inactive: 18.6%
22,Cc1nc(C)c(-c2ccc(SCc3ccccc3F)nn2)s1,inactive: 2.44%
23,Cc1nc2nc(SCC(=O)c3cccc([N+](=O)[O-])c3)[nH]c2cc1Br,inactive: 4.97%

row,Compound,activation
1,CCOc1cc2c(C#N)c(N3CCOCC3)nc(N)c2c(N)n1,inactive: 7.64%
2,COc1ccc(OC)c(-c2csc(NC(=O)Cc3ccccc3F)n2)c1,inactive: 3.61%
3,CCOC(=O)c1c(C)[nH]c(C)c1C(=O)COC(=O)c1sccc1C,inactive: 0.504%
4,COc1cc(/C=N/Nc2nc3ccccc3s2)ccc1O,inactive: 14.3%
5,Brc1ccc2nc(-c3ccccc3)c(Cc3ccccc3)n2c1,inactive: 7.48%
6,C=CCc1ccc(OCCOc2ccc(/C=N/n3cnnc3)cc2OCC)c(OC)c1,inactive: 1.87%
7,COC(=O)c1cc(C#N)c(N2CCOCC2)nc1C,inactive: 0.345%
8,Cc1cc(NCCCn2ccnc2)n2nc(C)c(-c3ccccc3)c2n1,inactive: 2.83%
9,COc1ccc(-c2c(C(C)=O)c(C)nc3sc4c(=N)n(N)cnc4c23)cc1,inactive: 2.21%
10,COc1ccc(C2=NN(C(=O)CSc3nc4ncc(Cl)cc4[nH]3)C(c3ccco3)C2)cc1 (stereo unspecified),inactive: 11.5%
11,COc1ccccc1/C=N/OCc1ccc(C#N)cc1,inactive: 2.31%
12,CCSc1cc(N2CCCC2)nc(-c2ccccc2)n1,inactive: 1.33%
13,NC(=O)CSc1nc2ccccc2n1Cc1ccccc1F,inactive: 1.7%
14,CC(=O)Nc1cc(-c2cccc(C)c2)cn2c(-c3ccc(S(C)(=O)=O)cc3)cnc12,inactive: 23.2%
15,Cc1nc(C(=O)N2CCc3c([nH]c4ccccc34)C2c2cc(F)ccc2F)cs1 (stereo unspecified),inactive: -0.68%
16,COc1ccc(-c2cc(C(F)(F)F)n3ncc(C(=O)N(C)Cc4ccccc4)c3n2)cc1,inactive: 13.9%
17,COc1cc2c(cc1OC)CN(C(=O)c1oc3ccccc3c1C)CC2,inactive: 3.46%
18,CC1CCN(CC(=O)n2c3c(c4ccccc42)CCCC3)CC1,inactive: 1.05%
19,O=C1C2C3C=CC(CC3)C2C(=O)N1/N=C/c1ccccc1O (stereo unspecified),inactive: -0.753%
